Results reported in the supplement of paper PMC4166925.
± gives the standard deviation of the averaged measurements. Over roughly 33,000 sequences, “E-score (dimensionless, -0.5 to 0.5)” has its median near -0.049; the highest 2% begin near 0.37. Some of the results follow.

What follows are sequences tested on T1, PmTbr T-box DNA-binding domain (GST fusion) (assay: PBM E-score of 8-mer (E-score (dimensionless, -0.5 to 0.5)); Tbr is Tbrain of the sea star Patiria miniata (Pm) or the sea urchin Strongylocentrotus purpuratus (Sp); higher = stronger binding preference; most listed sequences are background and not binding sites). Conditions: the construct has about 5 more residues each side.
T1 sequence: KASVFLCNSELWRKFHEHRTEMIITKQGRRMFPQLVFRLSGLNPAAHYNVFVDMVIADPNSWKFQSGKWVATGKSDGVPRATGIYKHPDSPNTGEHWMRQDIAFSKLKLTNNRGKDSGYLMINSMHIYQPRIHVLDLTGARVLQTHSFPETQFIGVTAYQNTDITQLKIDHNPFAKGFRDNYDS
Method in brief: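 Each ungapped 8-mer received an enrichment E-score from the Universal PBM Analysis Suite, averaged over duplicate arrays. The proteins were Tbr T-box DNA-binding domains, covering the whole T-box plus about five flanking residues, fused to GST and expressed in BL21 E. coli at 20 °C before glutathione affinity purification. Universal Agilent oligonucleotide arrays were made double-stranded by primer extension and incubated with 200 nM protein in PBS (pH 7.5). The arrays were then scanned and quantified, and every 8-mer was scored from probe intensities.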

Sequence	PBM E-score of 8-mer
ACTAAACT	-0.221 ± 0.1
AATTGGCT	-0.124 ± 0.023
ATGACAAA	-0.0227 ± 0.073
CGAGCTAG	0.0843 ± 0.042
AAGCCACC	-0.103 ± 0.0082
CCTGAGAG	0.208 ± 0.03
ACCCGTTC	0.0894 ± 0.035
AACCGCAT	-0.147 ± 0.042
ATCGCGAC	0.26 ± 0.021
AGTTCGCA	0.378 ± 0.0033
CCCAACGG	-0.0163 ± 0.021
ATCTAACC	-0.17 ± 0.028
AGAGGACA	-0.0292 ± 0.078
CGAAGGCG	0.324 ± 0.0055
GTGTCATA	0.4057 ± 0.0013
GACAGGCC	-0.0954 ± 0.051
CGAAAGGC	-0.0574 ± 0.022
GCGGCAGA	-0.0652 ± 0.011
AAAATTGA	-0.043 ± 0.071
AGTTTGCC	-0.0426 ± 0.13
CTACTGTA	-0.155 ± 0.044
TGGTCTAA	0.00383 ± 0.037
CCCTACCA	-0.0735 ± 0.011
CGCCGGTC	-0.0418 ± 0.029
CCGAGCCC	-0.159 ± 0.01

Sequence	PBM E-score of 8-mer
ATAGTTAA	0.114 ± 0.035
GACAGCTC	0.263 ± 0.026
GTTGAGCA	-0.115 ± 0.024
GAAAGGAC	-0.121 ± 0.062
GATTGTGA	0.0805 ± 0.0052
CGAAGCGC	0.0656 ± 0.031
TACTCTCA	0.0232 ± 0.011
GGGACATA	-0.105 ± 0.011
ATCTCATG	-0.0216 ± 0.0023
CCTTGTCG	0.131 ± 0.0024
AGGGCTCC	-0.366 ± 0.024
AACTCAAG	-0.109 ± 0.043
CGAAAGCG	0.0964 ± 0.029
AGTTGGTA	-0.0311 ± 0.073
ACTTGGCG	0.228 ± 0.025
GCGACCCC	0.0884 ± 0.043
AAGAATAG	0.164 ± 0.073
AATGGAAC	-0.0221 ± 0.039
ACCAGAGC	-0.278 ± 0.066
AAGGAGCT	-0.178 ± 0.079
CTACATGC	-0.113 ± 0.025
GTCGTATA	-0.103 ± 0.029
ATCTGGCA	0.0799 ± 0.025
CCAGACGA	0.00635 ± 0.05
ACGGCAAG	-0.0132 ± 0.021

Sequence	PBM E-score of 8-mer
ACTTGGAA	-0.1519 ± 0.00037
AATGCCAC	0.102 ± 0.039
AACAGACG	-0.113 ± 0.01
AAACTTCG	0.00852 ± 0.068
GCAAAGAC	0.0671 ± 0.01
ACATCGGC	0.0575 ± 0.012
GCATTCAC	0.106 ± 0.022
ACAATAGT	0.00901 ± 0.0018
AAGAATAA	-0.181 ± 0.091
CATCGGAG	-0.268 ± 0.058
CTGATCAA	-0.0385 ± 0.048
CTGCAAGC	-0.244 ± 0.094
CCAGCAGA	-0.00462 ± 0.083
GAATAGAC	-0.0937 ± 0.043
CCAAAAGG	0.0645 ± 0.019
GTTGATCA	0.0616 ± 0.0014
CCTCAATC	-0.093 ± 0.064
ACATAATA	-0.0608 ± 0.017
GTGGGTGA	0.197 ± 0.026
ACTGATGA	-0.198 ± 0.046
GAAACCGA	-0.0132 ± 0.073
AATCTAGG	-0.269 ± 0.042
AGCGTGTA	0.0613 ± 0.047
ACAGTGTG	0.324 ± 0.025
CAAAAGCG	0.138 ± 0.031

Sequence	PBM E-score of 8-mer
GGAATTCA	-0.126 ± 0.052
ACAAAACT	0.113 ± 0.034
CACGGGGG	-0.0744 ± 0.039
TGACCTCA	0.0125 ± 0.0081
CAATGCTG	-0.0887 ± 0.031
GGAGTACA	-0.0974 ± 0.13
CTTGGCAA	-0.0038 ± 0.016
CAGATCTG	0.268 ± 0.011
AATTAAGT	-0.108 ± 0.029
AATTCAGA	-0.232 ± 0.0091
CGACAAAC	0.14 ± 0.017
ACTGGAGC	-0.177 ± 0.049
CGTCGTAC	-0.085 ± 0.041
GGCACGAA	-0.0223 ± 0.015
CTACGTAA	0.0155 ± 0.049
ATGCCTGC	-0.314 ± 0.012
CATACAGA	-0.0697 ± 0.024
ATGGAGGC	-0.0262 ± 0.056
AAGTTCGA	-0.131 ± 0.11
GCCGTCAA	0.156 ± 0.01
CGAGCTTA	-0.176 ± 0.028
CCTGATCC	-0.0701 ± 0.017
AAGCTTGT	-0.1801 ± 0.00038
CTTCTGCC	-0.103 ± 0.076
GTTTGGCA	0.17 ± 0.02

Sequence	PBM E-score of 8-mer
AGCGACAA	0.255 ± 0.0028
AAGGTTTG	-0.16 ± 0.015
TATGGCAA	-0.0237 ± 0.04
CCTATCTC	0.051 ± 0.029
GACGGCTC	0.00758 ± 0.05
CTGGAGCA	-0.099 ± 0.0075
AAATACCC	-0.223 ± 0.014
GCAAAGCA	-0.0314 ± 0.027
GCTCGGCC	-0.121 ± 0.032
CTCCCGTC	-0.132 ± 0.03
ACAGTACT	-0.0664 ± 0.074
AGGGCTCA	-0.236 ± 0.018
AATCGGGA	-0.208 ± 0.076
CTATCGAC	0.147 ± 0.0049
CTGTACGC	-0.178 ± 0.013
GCCGAAAA	0.0405 ± 0.0032
AGTCAACT	-0.0153 ± 0.019
CTAGTGCA	0.173 ± 0.0046
CAATCGGC	0.0473 ± 0.059
ACAAATTC	0.115 ± 0.1
GCCAAACA	0.102 ± 0.074
TGTGCCAA	0.351 ± 0.013
CCTGACAG	0.218 ± 0.036
GCCGCACC	0.321 ± 0.033
CACAATAA	0.103 ± 0.028

Sequence	PBM E-score of 8-mer
CCAAGCTC	-0.0491 ± 0.14
CAGTATTC	-0.15 ± 0.028
CGCGGTAA	0.0896 ± 0.008
AGGGCCTC	-0.399 ± 0.0047
AAGGCTGT	0.0931 ± 0.0023
GGTCGAAA	-0.0937 ± 0.033
GACCCTAC	-0.0737 ± 0.034
GGTACTCA	-0.0327 ± 0.053
ATAGCGAT	-0.052 ± 0.021
GCACCATA	0.156 ± 0.064
CTGCCGTA	-0.161 ± 0.059
CTTTTGTC	0.0595 ± 0.045
TATCACAA	0.281 ± 0.017
CCCTTCAC	0.229 ± 0.015
GGTTCGTA	-0.182 ± 0.095
CATTTTAG	0.0773 ± 0.053
CGCTCCAC	-0.125 ± 0.023
ACAGCCTC	-0.206 ± 0.14
TCTTTACA	0.0932 ± 0.053
AGCTAAAA	0.0801 ± 0.06
ATGGCATG	0.078 ± 0.007
TAGAGCAA	-0.214 ± 0.052
ATTCGAAG	-0.00995 ± 0.11
GTCGGCGA	0.0977 ± 0.03
TGATCGAA	-0.129 ± 0.1

Sequence	PBM E-score of 8-mer
CAGCTCAG	0.145 ± 0.031
AATGGTGT	0.292 ± 0.018
ATATTTCC	-0.126 ± 0.024
CCTGTCCC	-0.0942 ± 0.023
TATGCCGA	-0.197 ± 0.039
AGAACCTG	-0.0359 ± 0.059
ATGTCGTA	-0.0353 ± 0.021
GATTAAAC	0.139 ± 0.024
CGTGTCCA	0.00534 ± 0.099
TAACGATA	-0.0923 ± 0.086
AGGGACTC	-0.0609 ± 0.055
AGGGCGGA	-0.0315 ± 0.029
ACCAAGTG	0.222 ± 0.05
ACAGTTGC	0.262 ± 0.0077
ATTTACCA	-0.05 ± 0.059
CCGCTTCC	0.087 ± 0.0016
CCACTTAA	-0.0162 ± 0.043
AGGTGCTC	0.0655 ± 0.042
AAGAGATC	0.00823 ± 0.069
CATCTACG	0.0477 ± 0.028
AGCCCCAC	0.0504 ± 0.11
AAACTCGC	0.231 ± 0.024
